# From the supplement of paper PMC8728848
# This is one part of the list.
# Assays:
# Test in all cases: glycan array binding signal (z-score within array); higher = stronger binding
# Details in all cases: glycan notation: IUPAC condensed, linker removed
# [1] = biological target: Fuc(a1-2)[Gal(a1-3)]Gal(b1-4)GlcNAc(b1-2)Man(a1-3)[Fuc(a1-2)[Gal(a1-3)]Gal(b1-4)GlcNAc(b1-2)Man(a1-6)]Man(b1-4)GlcNAc(b1-4)[Fuc(a1-6)]GlcNAc
# In short: (§1)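 The binding signal is a Z-score computed within each array and averaged over linkers. Arrays of the same protein sequence at different concentrations or buffers were also averaged together. Data originate from 3228 arrays in the Consortium for Functional Glycomics database, kept only where the protein sequence was available.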
# [2] = biological target: Fuc(a1-2)[Gal(a1-3)]Gal(b1-4)GlcNAc(b1-3)GalNAc
# In short: as §1
# [3] = biological target: Fuc(a1-2)[Gal(a1-3)]Gal(b1-4)GlcNAc(b1-3)[Fuc(a1-2)[Gal(a1-3)]Gal(b1-4)GlcNAc(b1-6)]GalNAc
# In short: as §1
# [4] = biological target: Fuc(a1-2)[Gal(a1-3)]Gal(b1-4)GlcNAc(b1-6)GalNAc
# In short: as §1
# [5] = biological target: Fuc(a1-2)[Gal(a1-3)]Gal(b1-4)[Fuc(a1-3)]Glc
# In short: as §1
# [6] = biological target: Fuc(a1-2)[Gal(a1-3)]Gal(b1-4)[Fuc(a1-3)]GlcNAc
# In short: as §1
# [7] = biological target: Fuc(a1-2)[Gal(a1-3)]Gal(b1-4)[Fuc(a1-3)]GlcNAc(b1-3)GalNAc
# In short: as §1
# [8] = biological target: Fuc(a1-2)[Gal(a1-4)]Gal(b1-4)GlcNAc
# In short: as §1
# [9] = biological target: Fuc(a1-2)[GalNAc(a1-3)]Gal
# In short: as §1
# [10] = biological target: Fuc(a1-2)[GalNAc(a1-3)]Gal(b1-3)GalNAc(a1-3)[Fuc(a1-2)]Gal(b1-4)GlcNAc
# In short: as §1
# [11] = biological target: Fuc(a1-2)[GalNAc(a1-3)]Gal(b1-3)GalNAc(b1-3)Gal(a1-4)Gal(b1-4)Glc
# In short: as §1
# [12] = biological target: Fuc(a1-2)[GalNAc(a1-3)]Gal(b1-3)GlcNAc
# In short: as §1
# [13] = biological target: Fuc(a1-2)[GalNAc(a1-3)]Gal(b1-3)GlcNAc(b1-2)Man(a1-3)[Fuc(a1-2)[GalNAc(a1-3)]Gal(b1-3)GlcNAc(b1-2)Man(a1-6)]Man(b1-4)GlcNAc(b1-4)GlcNAc
# In short: as §1
# [14] = biological target: Fuc(a1-2)[GalNAc(a1-3)]Gal(b1-3)GlcNAc(b1-2)Man(a1-3)[Fuc(a1-2)[GalNAc(a1-3)]Gal(b1-3)GlcNAc(b1-2)Man(a1-6)]Man(b1-4)GlcNAc(b1-4)[Fuc(a1-6)]GlcNAc
# In short: as §1
# [15] = biological target: Fuc(a1-2)[GalNAc(a1-3)]Gal(b1-3)GlcNAc(b1-3)GalNAc
# In short: as §1
# [16] = biological target: Fuc(a1-2)[GalNAc(a1-3)]Gal(b1-3)GlcNAc(b1-6)GalNAc
# In short: as §1
# [17] = biological target: Fuc(a1-2)[GalNAc(a1-3)]Gal(b1-4)Glc
# In short: as §1
# [18] = biological target: Fuc(a1-2)[GalNAc(a1-3)]Gal(b1-4)GlcNAc
# In short: as §1
# [19] = biological target: Fuc(a1-2)[GalNAc(a1-3)]Gal(b1-4)GlcNAc(b1-2)Man
# In short: as §1
# [20] = biological target: Fuc(a1-2)[GalNAc(a1-3)]Gal(b1-4)GlcNAc(b1-2)Man(a1-3)[Fuc(a1-2)[GalNAc(a1-3)]Gal(b1-4)GlcNAc(b1-2)Man(a1-6)]Man(b1-4)GlcNAc(b1-4)GlcNAc
# In short: as §1
# [21] = biological target: Fuc(a1-2)[GalNAc(a1-3)]Gal(b1-4)GlcNAc(b1-2)Man(a1-3)[Fuc(a1-2)[GalNAc(a1-3)]Gal(b1-4)GlcNAc(b1-2)Man(a1-6)]Man(b1-4)GlcNAc(b1-4)[Fuc(a1-6)]GlcNAc
# In short: as §1
# [22] = biological target: Fuc(a1-2)[GalNAc(a1-3)]Gal(b1-4)GlcNAc(b1-3)Gal(b1-4)GlcNAc
# In short: as §1
# [23] = biological target: Fuc(a1-2)[GalNAc(a1-3)]Gal(b1-4)GlcNAc(b1-3)Gal(b1-4)GlcNAc(b1-3)Gal(b1-4)GlcNAc
# In short: as §1
# [24] = biological target: Fuc(a1-2)[GalNAc(a1-3)]Gal(b1-4)GlcNAc(b1-3)GalNAc
# In short: as §1
# [25] = biological target: Fuc(a1-2)[GalNAc(a1-3)]Gal(b1-4)GlcNAc(b1-3)[Fuc(a1-2)[GalNAc(a1-3)]Gal(b1-4)GlcNAc(b1-6)]GalNAc
# In short: as §1
# [26] = biological target: Fuc(a1-2)[GalNAc(a1-3)]Gal(b1-4)GlcNAc(b1-6)GalNAc
# In short: as §1
# [27] = biological target: Fuc(a1-2)[GalNAc(a1-3)]Gal(b1-4)[Fuc(a1-3)]GlcNAc
# In short: as §1
# [28] = biological target: Fuc(a1-2)[GalNAc(a1-3)]Gal(b1-4)[Fuc(a1-3)]GlcNAc(b1-3)GalNAc
# In short: as §1
# [29] = biological target: Fuc(a1-2)[GalNAc(a1-4)]Gal(b1-4)GlcNAc
# In short: as §1
# [30] = biological target: Fuc(a1-2)[GalNAc(b1-3)]Gal
# In short: as §1
# Fuc(a1-3)GlcNAc = biological target: Fuc(a1-3)GlcNAc
# In short: as §1
# [31] = biological target: Fuc(a1-3)[Gal(b1-4)]Glc6S
# In short: as §1
# [32] = biological target: Fuc(a1-3)[Gal(b1-4)]GlcNAc
# In short: as §1
# [33] = biological target: Fuc(a1-3)[Gal(b1-4)]GlcNAc(b1-2)Man
# In short: as §1
# [34] = biological target: Fuc(a1-3)[Gal(b1-4)]GlcNAc(b1-2)Man(a1-3)[Fuc(a1-3)[Gal(b1-4)]GlcNAc(b1-2)Man(a1-6)]Man(b1-4)GlcNAc(b1-4)GlcNAc
# In short: as §1
# [35] = biological target: Fuc(a1-3)[Gal(b1-4)]GlcNAc(b1-2)Man(a1-3)[Fuc(a1-3)[Gal(b1-4)]GlcNAc(b1-2)Man(a1-6)]Man(b1-4)GlcNAc(b1-4)[Fuc(a1-6)]GlcNAc
# In short: as §1
# [36] = biological target: Fuc(a1-3)[Gal(b1-4)]GlcNAc(b1-3)Gal(b1-3)[Fuc(a1-4)]GlcNAc
# In short: as §1
# [37] = biological target: Fuc(a1-3)[Gal(b1-4)]GlcNAc(b1-3)Gal(b1-4)[Fuc(a1-3)]GlcNAc
# In short: as §1
# [38] = biological target: Fuc(a1-3)[Gal(b1-4)]GlcNAc(b1-3)Gal(b1-4)[Fuc(a1-3)]GlcNAc(b1-3)Gal(b1-4)[Fuc(a1-3)]GlcNAc
# In short: as §1
# [39] = biological target: Fuc(a1-3)[Gal(b1-4)]GlcNAc(b1-3)GalNAc
# In short: as §1
# [40] = biological target: Fuc(a1-3)[Gal(b1-4)]GlcNAc(b1-6)GalNAc
# In short: as §1
# [41] = biological target: Fuc(a1-3)[Gal(b1-4)]GlcNAc(b1-6)[Gal(b1-3)GlcNAc(b1-3)]Gal(b1-4)Glc
# In short: as §1
# [42] = biological target: Fuc(a1-3)[Gal(b1-4)]GlcNAc6S
# In short: as §1
# [43] = biological target: Fuc(a1-3)[Gal3S(b1-4)]Glc
# In short: as §1
# [44] = biological target: Fuc(a1-3)[Gal3S(b1-4)]GlcNAc
# In short: as §1
binder,measurement,setting,value
OGAN (protein) MVQKESQATLEERESELSSNPAASAGASLEPPAAPAPGEDNPAGAGGAAVAGAAGGARRFLCGVVEGFYGRPWVMEQRKELFRRLQKWELNTYLYAPKDDYKHRMFWREMYSVEEAEQLMTLISAAREYEIEFIYAISPGLDITFSNPKEVSTLKRKLDQVSQFGCRSFALLFNDIDHNMCAADKEVFSSFAHAQVSITNEIYQYLGEPETFLFCPTEYCGTFCYPNVSQSPYLRTVGEKLLPGIEVLWTGPKVVSKEIPVESIEEVSKIIKRAPVIWDNIHANDYDQKRLFLGPYKGRSTELIPRLKGVLTNPNCEFEANYVAIHTLATWYKSNMNGVRKDVVMTDSEDSTVSIQIKLENEGSDEDIETDVLYSPQMALKLALTEWLQEFGVPHQY,glycan array binding signal (z-score),[1],-0.051
same,glycan array binding signal (z-score),[2],-0.067
same,glycan array binding signal (z-score),[3],0.056
same,glycan array binding signal (z-score),[4],-0.066
same,glycan array binding signal (z-score),[5],-0.066
same,glycan array binding signal (z-score),[6],-0.069
same,glycan array binding signal (z-score),[7],-0.076
same,glycan array binding signal (z-score),[8],-0.108
same,glycan array binding signal (z-score),[9],-0.072
same,glycan array binding signal (z-score),[10],23.3
same,glycan array binding signal (z-score),[11],7.17
same,glycan array binding signal (z-score),[12],-0.02
same,glycan array binding signal (z-score),[13],-0.063
same,glycan array binding signal (z-score),[14],-0.056
same,glycan array binding signal (z-score),[15],-0.055
same,glycan array binding signal (z-score),[16],-0.047
same,glycan array binding signal (z-score),[17],-0.068
same,glycan array binding signal (z-score),[18],-0.083
same,glycan array binding signal (z-score),[19],-0.069
same,glycan array binding signal (z-score),[20],-0.027
same,glycan array binding signal (z-score),[21],-0.064
same,glycan array binding signal (z-score),[22],-0.071
same,glycan array binding signal (z-score),[23],-0.044
same,glycan array binding signal (z-score),[24],-0.027
same,glycan array binding signal (z-score),[25],-0.123
same,glycan array binding signal (z-score),[26],-0.043
same,glycan array binding signal (z-score),[27],-0.028
same,glycan array binding signal (z-score),[28],-0.035
same,glycan array binding signal (z-score),[29],-0.033
same,glycan array binding signal (z-score),[30],-0.047
same,glycan array binding signal (z-score),Fuc(a1-3)GlcNAc,-0.022
same,glycan array binding signal (z-score),[31],-0.046
same,glycan array binding signal (z-score),[32],-0.026
same,glycan array binding signal (z-score),[33],-0.077
same,glycan array binding signal (z-score),[34],-0.031
same,glycan array binding signal (z-score),[35],0.025
same,glycan array binding signal (z-score),[36],-0.046
same,glycan array binding signal (z-score),[37],-0.042
same,glycan array binding signal (z-score),[38],-0.08
same,glycan array binding signal (z-score),[39],-0.048
same,glycan array binding signal (z-score),[40],-0.022
same,glycan array binding signal (z-score),[41],-0.065
same,glycan array binding signal (z-score),[42],-0.052
same,glycan array binding signal (z-score),[43],-0.07
same,glycan array binding signal (z-score),[44],0.055
